Measured values published in the supplement of paper PMC12632987.
The full ranking holds about 1,800 sequences; the median of “median log2 fold change of GCK-ALFA target abundance (FLAG IP / Myc IP barcode read proportion)” is about 0.14, and the lowest 2% start at about -0.84. This is one part of the list.

T1: TRAF2, Q12933
T1 chain: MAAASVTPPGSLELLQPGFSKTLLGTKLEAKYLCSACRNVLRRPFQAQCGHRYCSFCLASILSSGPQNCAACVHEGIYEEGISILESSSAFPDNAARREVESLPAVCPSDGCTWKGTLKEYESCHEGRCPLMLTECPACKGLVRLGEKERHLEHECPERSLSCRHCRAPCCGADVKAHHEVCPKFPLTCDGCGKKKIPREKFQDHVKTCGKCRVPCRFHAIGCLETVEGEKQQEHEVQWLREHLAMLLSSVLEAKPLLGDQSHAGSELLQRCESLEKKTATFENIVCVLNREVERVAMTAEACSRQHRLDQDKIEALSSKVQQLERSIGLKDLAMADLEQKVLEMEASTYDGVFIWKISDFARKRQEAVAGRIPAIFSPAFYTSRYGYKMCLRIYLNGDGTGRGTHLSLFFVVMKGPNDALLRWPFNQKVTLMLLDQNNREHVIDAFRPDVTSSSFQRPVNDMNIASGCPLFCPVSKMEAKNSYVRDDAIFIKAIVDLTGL

B1: traf2_out_1_158_924 (protein)
chain: DSLNNLILSVVRLIGEFAVDNALERGDEELAEKLREFSEEVEKLVKKLLVEEKKSVEELIEKIREIGERFKEGQDPETAEAIERTSRQIISGIRQAAKLH
B2: traf2_out_18_167_1833 (protein)
chain: EEEIEKKKNELSDEMVKASERRRAALAVLVALDRDPEAEAAALARLRAVTADDPEVQAELAALETLPPEERRAALRAFAERLAEREQKKLNELYKEYESL
B3: traf2_out_1_158_910 (protein)
chain: STDVGLLASSVTAVLDVWAEEARERGLEEAAALFEELRKEVLELYEENKDISLEEFAEKVLELVDRWEERAKALSPEERAAVERAFRQIRSAVEQVVKLA
B4: traf2_out_18_3_1946 (protein)
chain: SEEERKKYSEKLDEVFDDTGAEILARARALVAEDPRFQPALDAIEAIAARGPRPATMANTLIDALRALGYEEEAAAVEEYYSEKAKEASELIKKYEEAIK
B5: traf2_out_6_156_2454 (protein)
chain: SLEEILKEAKEKIKKEIEELSKASEEKKISYISKIAGAAYRALQKAREAGASLEELKKFAEELKKTAKEEAEKAGLDEDTKNLLLSSLNAVFDVALEEAK
B6: traf2_out_11_169_865 (protein)
chain: EEEEKNRKLIDFALEVEDKAKEELKKFALELAKEAGLDVAEVEAIFEANKNSSLSAVAAALIEYFKSKGKEEEAEKILKKHDELKEKINKEVSEKIKELE
B7: traf2_out_6_156_2404 (protein)
chain: KVEEILEKALKEIEELVKKLSEASEEKKISYISKIAGTFYRALQELREAGASVEELKEFGEKVNKKLKELLDKYKLPEDIKNLILSSINAVFDVALAEAK
B8: traf2_out_17_162_1634 (protein)
chain: AEVEERRERLERRLEELEKRLKELREKLKEIDKKSKEELTDLIVEASELKREALLLIQEIEALEGEIPPEERERLLRRAEEIAEEAQRIANAFYKKLEEL
B9: traf2_out_20_38_2041 (protein)
chain: SPEEEERRQIEEDVRLANEALDEAEAKLAEWQAKGLSLDEIAEKVKEEIKKAFEEAGLEDLVPEYLEKIDLVKDSPDALRLITRILARALTKVRRKKREK
B10: traf2_out_17_162_1480 (protein)
chain: AALEAELAKLEAELKKLEKKLKELKEKTKNLEKMSKEELTDLLVEASEARREALELAERIRALEPLIGAERAGKLKEEAEKIAEELQKIANKIYKELEKK
B11: traf2_out_9_108_2584 (protein)
chain: MSEEEKLDEIFEKVKELALEFLKEVDLSPELREDLEKAIEQAEKLYKEGLKETAIILLAIDLATIASKVGDEVVEEVLERLKEIDPRAYAAARRRVELLK
B12: traf2_out_17_35_1757 (protein)
chain: SAEEEALRKALSEAHDKADAEADALRAKLEAAAADPAAFEKTFNAVVEELEKRANNPTALAYIEAAKEARAAGDRDAAIAALERAIRAIILSEKYKEVNA
B13: traf2_out_6_156_2408 (protein)
chain: MVEKIKEEALKKIKKYIEELSKASEEKKIKYISKIAGTVYKALQKLLEAGASLEEIKEFAKEILEEIEKYLKEAGLDEKTINLVLSSLTAVFNVAIEEAK
B14: traf2_out_17_178_1739 (protein)
chain: SKEELLKKISELADKRLDVSKDAMDTIKARLEAEGVLTPELAAKLDEVAKNSNLYAFEEVANEAIARSSSKAELTALRDETVAKLRELNKEIQEAVNKLE
B15: traf2_out_17_162_1653 (protein)
chain: SALEERLAALRARLEELRKETERLKKLLEKIDEYSKEELSDYIVEASEVKRRAREAIQEIEALAPLLDPEEAAALRAELEKIIEEAQRIANEFLKKYEAL
B16: traf2_out_13_95_1229 (protein)
chain: SAEANEKLRKISNEMLDRAEAIVDALEARLAPHPETAPDLAAIRAALRNRGITQAIAVLRAAAAAHPAVAALYEAAAAELEKIRRDAGKKVAEIDKEAAA
B17: traf2_out_20_3_2238 (protein)
chain: EELKKKAEEALKKAEELLKEAAPLLPAEDAAALEKKLKEAKKYFETDYKDALVELSELRRAALAAAERARAAGDEDTAALLEELADEVNKAMHYVYLIIE
B18: traf2_out_20_3_2066 (protein)
chain: KELEEELKKELEKAIALLKEAAKAADEETAKKLKELIKRLKASEELSYEDRLVELSEIRRELLELAEKAKKEGKEELAALLEKAADALNKAMQLTYEIIE
B19: traf2_out_20_3_2171 (protein)
chain: SELEKELKEEKEKALKILKEAAKAADKETAKKIKELIKRLKESEELSVDDRLVEVSEIRREVLELAEAARKAGDEKLAKLLEEAAEALNRAAQLLYKISQ

Target: T1, TRAF2, Q12933
Experiment: median log2 fold change of GCK-ALFA target abundance (FLAG IP / Myc IP barcode read proportion) (log2 ratio); each designed protein is fused to an ALFA-tag nanobody in HEK293 cells to bring the named protein to FLAG-tagged glucokinase (GCK); Myc marks an untargeted standard; higher = target protein stabilised (more abundant)
Settings: target protein: 3xFLAG-MCP-GCK-ALFA reporter; HEK293 landing pad (RPLP)
Method in brief: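 Binders fused to an ALFA nanobody were recombined as a library into HEK293 landing-pad cells, which were induced with 2 μg mL^−1 doxycycline and then transfected to express a FLAG-tagged target and a Myc-tagged standard. After 48 h, circular RNA barcodes recovered by anti-FLAG and anti-Myc immunoprecipitation of lysates were reverse transcribed, amplified and sequenced. Each binder's target abundance is the median log2 ratio of FLAG to Myc barcode read proportions, from barcodes present at ≥10^−7 in both replicates, binders carrying ≥3 barcodes per replicate, a 10^−6 pseudocount and pooled replicates.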

Going from B1 to B2, the “median log2 fold change” value rises from -0.17 to 0.333.

B3 and B4 are within 0.2 log units of each other in “median log2 fold change” value: 0.18 for the first, 0.267 for the second.

Compared with B5, B6 is lower in “median log2 fold change” value: 0.274 for the first, -0.406 for the second.

B7 and B8 are within 0.2 log units of each other in “median log2 fold change” value: 0.125 for the first, 0.317 for the second.

B9 and B10 are within 0.2 log units of each other in “median log2 fold change” value: 0.129 for the first, 0.103 for the second.

First: B11
Second: B12
The “median log2 fold change” value of the first is lower: 0.0923 for the first, 0.358 for the second.

First: B13
Second: B14
The “median log2 fold change” value of the first is lower: -0.531 for the first, 0.236 for the second.

B15 and B16 are within 0.2 log units of each other in “median log2 fold change” value: 0.308 for the first, 0.192 for the second.

B17 and B18 are within 0.2 log units of each other in “median log2 fold change” value: 0.283 for the first, 0.154 for the second.

B19 was tested, and the “median log2 fold change” value was 0.0894.
